Publication PMC4336329 (PLoS ONE, 2015)
About 2,200 (0.71%) of roughly 310,000 compounds showed an effect of 50% or more. Effects have a minus sign here. Some of the results follow.

These compounds were tested against human ether-à-go-go-related gene (hERG) potassium channel (human, UniProt Q12809) (assay: primary screen, population patch clamp on CHO cells stably expressing hERG).
human ether-à-go-go-related gene (hERG) potassium channel, sequence (Q12809 whole entry, looked up): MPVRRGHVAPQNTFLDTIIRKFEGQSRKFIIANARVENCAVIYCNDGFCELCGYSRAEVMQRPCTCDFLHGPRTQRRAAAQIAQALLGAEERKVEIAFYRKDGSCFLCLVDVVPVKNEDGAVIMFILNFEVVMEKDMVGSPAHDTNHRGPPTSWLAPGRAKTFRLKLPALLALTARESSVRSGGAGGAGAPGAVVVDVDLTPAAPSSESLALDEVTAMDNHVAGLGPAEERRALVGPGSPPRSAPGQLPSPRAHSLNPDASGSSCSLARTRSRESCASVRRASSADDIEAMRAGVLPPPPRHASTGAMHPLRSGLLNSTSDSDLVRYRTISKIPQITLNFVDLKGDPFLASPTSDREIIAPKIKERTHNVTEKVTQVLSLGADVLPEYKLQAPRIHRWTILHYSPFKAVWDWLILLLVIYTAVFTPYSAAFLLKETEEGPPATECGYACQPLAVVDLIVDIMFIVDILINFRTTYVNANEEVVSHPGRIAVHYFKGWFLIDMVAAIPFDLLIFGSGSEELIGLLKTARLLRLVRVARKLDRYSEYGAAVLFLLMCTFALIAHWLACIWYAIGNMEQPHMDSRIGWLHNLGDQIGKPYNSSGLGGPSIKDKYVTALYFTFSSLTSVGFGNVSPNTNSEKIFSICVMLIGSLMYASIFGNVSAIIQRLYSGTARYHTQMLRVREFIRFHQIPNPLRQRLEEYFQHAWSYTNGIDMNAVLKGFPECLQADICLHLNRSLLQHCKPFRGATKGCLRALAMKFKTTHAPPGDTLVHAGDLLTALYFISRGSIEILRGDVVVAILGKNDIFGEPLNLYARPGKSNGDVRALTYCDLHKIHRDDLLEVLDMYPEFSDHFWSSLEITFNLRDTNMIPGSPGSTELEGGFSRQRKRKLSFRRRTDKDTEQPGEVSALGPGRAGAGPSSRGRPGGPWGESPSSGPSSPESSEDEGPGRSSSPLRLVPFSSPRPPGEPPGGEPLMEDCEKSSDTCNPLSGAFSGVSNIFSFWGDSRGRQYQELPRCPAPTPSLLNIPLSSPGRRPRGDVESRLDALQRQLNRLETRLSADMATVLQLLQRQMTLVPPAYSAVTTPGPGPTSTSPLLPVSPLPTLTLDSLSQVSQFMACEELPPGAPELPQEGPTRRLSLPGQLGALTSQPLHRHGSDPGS

| Compound | hERG current change (%, negative = inhibition) at 1uM [%] |
| --- | --- |
| CCNC(=O)[C@H]1O[C@@H](n2cnc3c(N)nc(NCCc4ccc(CCC(=O)O)cc4)nc32)[C@H](O)[C@@H]1O.Cl | 13.8 |
| CCOC(=O)c1cnc2c(CC)cccc2c1NCCCN1CCOCC1 | -1.29 |
| O=C(CCNC(=O)c1ccccc1Cl)Nc1cc(C(F)(F)F)ccc1N1CCCC1 | 7.21 |
| O=S(=O)(c1cccc(Cl)c1)N1CCSc2ccccc21 | 1.42 |
| CCn1cc(C(=O)N2CCn3c(nc4ccccc43)C2)c(=O)c2ccc(C)nc21 | 9.47 |
| CCOCCCn1c(=S)[nH]c2cc(C(=O)NCCCN(CC)CC)ccc2c1=O | 8.5 |
| CCN(CC)c1ccc(C=Nc2ccc(C#N)cc2)c(O)c1 | 2.25 |
| O=C(CCc1nc2ccccc2c(=O)[nH]1)NCc1cccc(Cl)c1 | 5.42 |
| CCC(=O)n1nc(NCc2ccccc2OC)nc1NCc1ccccc1OC | 9.08 |
| O=S(=O)(Nc1ccc2ccccc2n1)c1ccccc1 | 12 |
| Cc1c(C(=O)NCCc2ccccc2)oc2ccc(S(=O)(=O)N3CCC4(CC3)OCCO4)cc12 | -1.39 |
| CCc1nnc(NC(=O)C2CCN(C(=O)c3ccco3)CC2)s1 | 9.08 |
| COc1ccc(N(C)S(=O)(=O)c2cccc(C(=O)N(C)Cc3ccc(C)o3)c2)cc1 | -0.931 |
| O=C(CCn1cnc2ccccc2c1=O)Nc1ccc(Cl)c(Cl)c1 | 4.38 |
| COc1cc(CCCN2C(=S)NC[C@H]2Cc2ccc(O)cc2)cc(OC)c1OC | -5.44 |
| O=C(Nc1ccncc1)c1ccc2c(c1)C(=O)N(C1CCCCC1)C2=O | 13.8 |
| CC(=O)c1cc2c(cc1NC(=O)Nc1cccc(Cl)c1)OCCO2 | 4.57 |
| CCC(CC)c1nnc(NC(=O)COc2ccc3c(C)cc(=O)oc3c2)s1 | 2.78 |
| CCOC(=O)Nc1ccc2c(c1)N(C(=O)N1CCN(C)CC1)c1ccccc1CC2.Cl | -0.261 |

| Compound | hERG current change (%, negative = inhibition) at 1uM [%] |
| --- | --- |
| CCOc1ccccc1C(=O)Nc1cc(C(=O)NCC(C)C)ccc1Cl | 7.35 |
| CN(Cc1ccccn1)C(=O)C1CCC(=O)N(Cc2cccc(C(F)(F)F)c2)C1 (centres unmarked) | 1.14 |
| CCCCOc1ccc(-c2nnc(-c3cc[n+](C)cc3)o2)cc1.O=S(=O)([O-])c1ccccc1 | 1.92 |
| COc1ccc(S(=O)(=O)N(C)Cc2ccc3c(c2)OCCO3)cc1 | 8.71 |
| O=C(NNC(=O)c1cccnc1)Nc1ccccc1 | 5.59 |
| CCOP(=O)(OCC)C(NC(=O)Nc1ccccc1)C(N)=O (centres unmarked) | 11.8 |
| FC(F)Sc1ccc(NC(=S)NC2CCC(NC(=S)Nc3ccc(SC(F)F)cc3)CC2)cc1 (centres unmarked) | 5.27 |
| Cc1ccc(/C=C/C2=NN(Cc3ccccc3)C(=O)CC2)cc1 | 9.12 |
| Cn1c(CNC(=O)c2ccc(Cl)cc2)nnc1SCC(=O)NC1=NCCS1 | 12.4 |
| O=C(OCC(=O)N1CCN(c2ccccc2)CC1)c1ccccc1OC(F)F | 11.5 |
| COCCn1c(SCc2cnc(-c3ccccc3)s2)nnc1-c1ccncc1 | 5.84 |
| Cc1ccc(OCCNC(=O)CN2C(=O)NC3(CCCC3)C2=O)cc1 | 12.2 |
| CC(=O)NCC(=O)O.CN(C)CCC1c2ccc(Cl)cc2CCc2cccnc21 (centres unmarked) | 3.16 |
| Cn1c(=O)[nH]c(=O)c2c1nc(N)n2Cc1ccccc1 | 3.22 |
| CCCN(CC(=O)Nc1ccccc1C)C(=O)COc1c(Cl)cccc1Cl | 4.81 |
| C=CCN=c1scc(-c2ccc(F)cc2)n1/N=C/c1ccccn1 | 11 |
| CC(=O)C1=C(O)CCCC1=NCc1nc2ccccc2[nH]1 | 12.3 |
| O=C(COC(=O)C12CC3CC(CC(C3)C1)C2)NCc1ccco1 | -0.748 |
| CCC1(c2ccccc2)NC(=O)N(CC(=O)N(C)CC(=O)Nc2cccc(F)c2)C1=O (centres unmarked) | 12.4 |

| Compound | hERG current change (%, negative = inhibition) at 1uM [%] |
| --- | --- |
| Cc1nc(C)c(-c2ccc(SCC(=O)Nc3cccc(Cl)c3C)nn2)s1 | 10.4 |
| CCN(C(=O)COC(=O)CCC(=O)c1ccccc1)c1c(N)n(Cc2ccccc2)c(=O)[nH]c1=O | 13.4 |
| COc1cccc(-n2c(=O)n(Cc3ccccc3)c(=O)c3[nH]cnc32)c1 | 7.22 |
| COc1cccc(NC(=O)CSc2nnc3cc(C)nc(N)n23)c1 | 9.33 |
| O=C(COc1ccc2ccccc2c1)NNC(=O)Nc1ccc(F)cc1F | 12.5 |
| COc1ccc(OC)c(NC(=O)C2CCCCC2C(=O)O)c1 (centres unmarked) | 6.86 |
| COc1ccccc1NC(=O)N1CCN(c2ccc(F)cc2)CC1 | 0.344 |
| Cc1cccc(NC(=S)NCCN2CCOCC2)c1 | 5.19 |
| O=C(NC1CCc2ccccc21)c1cc(COc2ccc(F)cc2F)on1 (centres unmarked) | 15.5 |
| COc1ccc(S(=O)(=O)N(C)CC(=O)NCCN2CCOCC2)cc1Cl | 9.74 |
| O=C1CC(c2ccccc2)CC(O)=C1C=NC1CCCCC1 (centres unmarked) | -8.72 |
| Cc1cccn(Cc2c(F)cccc2Cl)c1=O | 9.07 |
| Cc1ccc(C(=O)NC(=S)Nc2ccccc2N2CCCC2)cc1[N+](=O)[O-] | 7.01 |
| CN(C)c1nc2c(c(=O)n(C)c(=O)n2C)n1Cc1ccccc1 | -0.913 |
| CCCc1cc(=O)oc2cc(C)cc(O)c12 | 4.71 |
| O=C(CSc1nnc(CNC(=O)c2cccs2)o1)NC1CCCC1 | 3.8 |
| O=C(Nc1ccccc1Cc1ccccc1)c1ccccc1NS(=O)(=O)c1ccc(Cl)s1 | 4.17 |
| COc1c(O)cc2oc(-c3ccc(O)cc3)cc(=O)c2c1O | 8.67 |
